Measurements published in CN110950967A (SHANDONG MINKANG BIOLOGICAL TECH CO LTD; HANGZHOU ZHONGLIAN …, dated 2020).

Target: T1, 人血清白蛋白 (human, UniProt P02768)
T1 construct: Injected as analyte over the immobilised fusion protein; also called human serum albumin; HSA
Assay: SPR, GE Biacore X100, fusion protein amine-coupled to a CM-5 chip, human serum albumin injected at at least three concentrations

T1 sequence (P02768 25-609 limits assumed): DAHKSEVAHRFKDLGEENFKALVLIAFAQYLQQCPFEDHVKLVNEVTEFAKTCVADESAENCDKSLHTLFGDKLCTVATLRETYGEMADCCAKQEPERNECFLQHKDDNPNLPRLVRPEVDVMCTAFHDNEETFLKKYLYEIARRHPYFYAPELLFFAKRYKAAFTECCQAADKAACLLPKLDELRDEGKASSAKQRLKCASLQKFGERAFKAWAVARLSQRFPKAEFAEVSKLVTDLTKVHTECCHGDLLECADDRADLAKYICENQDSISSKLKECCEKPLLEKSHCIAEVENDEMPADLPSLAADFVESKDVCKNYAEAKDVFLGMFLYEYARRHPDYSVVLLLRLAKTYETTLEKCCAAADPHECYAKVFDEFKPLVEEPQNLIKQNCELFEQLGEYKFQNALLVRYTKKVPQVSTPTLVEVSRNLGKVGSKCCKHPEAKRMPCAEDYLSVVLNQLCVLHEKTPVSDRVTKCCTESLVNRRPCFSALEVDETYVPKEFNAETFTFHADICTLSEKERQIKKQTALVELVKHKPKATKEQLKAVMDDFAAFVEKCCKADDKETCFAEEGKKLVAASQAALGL

Kd: 0.162 nM
B1: 抗人血清白蛋白纳米抗体与IL-2融合蛋白 (other)
chain: MADVQLVESGGGLVQPGQSLRLSCAATGRSFTTNAMAWFRQFPGKEREFVAAISWGGLGYVADSMRGRFTISRDTKDTMILRLSSLKREDTAIYYCAARKTSTTATEATMYAYWGHGTQVTVSEPKTPKEFGGGGSGGGGS[about 150 residues left out]
notes: Expressed from pMAL-c5x in E. coli BL21(DE3) and purified on Ni-NTA; TEV cleavage is described only for a 10 ug sample run on a gel; also called 抗人血清白蛋白纳米抗体与人IL-2融合蛋白; 重组融合蛋白
